Measured values taken from PubChem BioAssay AID686970 (National Center for Advancing Translational Sciences (NCATS), 2013).
About 6,000 (1.7%) of roughly 360,000 compounds were called active. This list was built around the results that the source calls inconclusive (neither active nor inactive); the mix of calls is not that of the screen. Calls come from the whole dose curve; as a rule, active = well fitted cell-killing curve with a large enough effect; inconclusive = small, poorly fitted or top-dose-only effect, or effect the other way; inactive = flat fitted curve, though single readings scatter. Potencies of inconclusive entries are left out as doubtful fits.
Potency is the fitted concentration of half-maximal effect; tags give direction and shape of the fitted curve.

Assay: qHTS for induction of synthetic lethality in tumor cells producing 2HG: qHTS for the HT-1080-NT fibrosarcoma cell line;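 note: NT is the 2HG producing partner of a matched IDH1 knockdown line; nearly all actives have a fitted effect of over 55% in size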;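 for activity, negative = less viability: 0% = DMSO-treated cells and -100% = media-only wells without cells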
Settings: HT-1080-NT fibrosarcoma viability, CellTiter-Glo ATP luminescence, 48 h; activity, negative = less viability: at 46.1 µM (top of the series) unless noted
Outline: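 HT-1080-NT fibrosarcoma cells (2HG-overproducing), 750 cells/well in RPMI with 5% FBS, dosed after 2 h and incubated 48 h at 37C. CellTiter-Glo luminescence normalized to DMSO and no-cell wells; concentration-response curves fitted and classed.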
For `Cc1nc(C(=O)NCCO)cc2c1[nH]c1ccccc12`, the Potency was “inactive”.
For `Cc1ccc(C)c(C(O)c2ncc(-c3cccc4ccccc34)[nH]2)c1` (configuration not stated), the Potency was inconclusive [cytotoxic, single point].
In the case of `COc1ccc(/C=N/Nc2cc(C)nc(NS(=O)(=O)c3ccc(C)cc3)n2)cc1`, the Potency is reported as inconclusive [cytotoxic, single point].
With `Cc1ccccc1CS(=O)(=O)c1ncc(Cl)c(C(=O)Nc2ccc(F)cc2)n1` the Potency was inconclusive [cytotoxic, single point].
With `CC(C)N(C(=O)Nc1ccc2nsnc2c1)C(C)C` the Potency was active: 18.4 µM.
In the case of `Cc1ccsc1C(=O)N1CCC1(C)C(=O)Nc1ccc2c(c1)OCCO2` (configuration not stated), the Potency is reported as “inactive”.
In the case of `Cc1ccc(S(=O)(=O)N(C)C)cc1NC(=O)C(C)OC(=O)C1CCCC1` (configuration not stated), the Potency is reported as “inactive”.
In the case of `Cc1ccc(-c2csc3nc(SCC(N)=O)n(Cc4ccccc4)c(=O)c23)cc1`, the Potency is reported as inconclusive [cytotoxic, single point].
For `CCOC(=O)c1nc(-c2ccc3c(c2)OCO3)[nH]c1C`, the Potency was inconclusive [cytotoxic, single point].
In the case of `COc1ccc(-c2nnc(SCC(=O)Nc3cccc(Cl)c3)o2)cc1`, the Potency is reported as inconclusive [cytotoxic, single point].
With `CC(=O)Nc1cccc(-c2ccnc3c2CC(C(=O)NCC2CCOCC2)O3)c1` (configuration not stated) the Potency was inconclusive [cytotoxic, partial curve].
In the case of `CCOC(=O)c1ccccc1NC(=O)COC(=O)CCC1CCCC1`, the Potency is reported as “inactive”.
In the case of `O=C1N[C@H](Cc2ccccc2)COC(=O)[C@H](Cc2ccc(F)cc2)C/C=C\C[C@@H]1CC(=O)N(CCO)Cc1ccccc1`, the Potency is reported as inconclusive [cytotoxic, single point].
In the case of `Cc1onc(-c2ccccc2Cl)c1C(=O)N1CCN(c2cccc(Cl)c2)CC1`, the Potency is reported as active: 2.59 µM.
In the case of `COC(=O)c1cc(S(=O)(=O)N2CCC(c3ccccc3)C2)c[nH]1` (configuration not stated), the Potency is reported as inconclusive [cytotoxic, single point].
With `CCCCOc1ccc(-c2nnn(CC(=O)NCc3ccco3)n2)cc1` the Potency was active: 7.08 µM.
For `CC(=O)N1CCN(c2ccc(NC(=O)c3ccc(N4CCCC4)c([N+](=O)[O-])c3)cc2Cl)CC1`, the Potency was inconclusive [cytotoxic, single point].
For `CC(Sc1nnc2c(n1)[nH]c1ccccc12)C(=O)NC1CCCCC1` (configuration not stated), the Potency was “inactive”.
For `CN1CCN(c2nc(-c3cccnc3)nc3ccccc23)CC1`, the Potency was inconclusive [cytotoxic, single point].
For `COc1ccc(NC(=O)CN(C)C(C)C(=O)N2CCCCC2)cc1` (configuration not stated), the Potency was inconclusive [cytotoxic, full curve, poor fit].
For `CCOC(=O)C1(CCOc2ccccc2)CCN(Cc2cc(OC)c(O)cc2Cl)CC1`, the Potency was inconclusive [cytotoxic, single point].
For `CCC(C)(C)C1CCc2c(sc(NC(=O)c3ccccc3C(=O)O)c2C#N)C1` (configuration not stated), the Potency was inconclusive [cytotoxic, partial curve].
With `O=C(C[C@@H]1C/C=C/CCCC(=O)O[C@H](c2ccccc2)CNC1=O)NCCO` the Potency was “inactive”.
With `Cn1c(=O)c(C(=O)NNC(=O)c2cccc(Cl)c2)c(O)c2ccccc21` the Potency was active: 6.51 µM.
With `Cc1nnc(NC(=O)C2CC(=O)N(Cc3ccccc3)C2)s1` (configuration not stated) the Potency was inconclusive [rising, single point].
In the case of `CS(=O)(=O)Nc1cccc(NC(=O)c2ccc(-c3ccc(F)c(F)c3)c3ccoc23)c1`, the activity, negative = less viability is reported as inconclusive: -43.4%.
For `CC1=CC(=O)C(Sc2ccc(C)cc2)=CC1=O`, the Potency was active: 20.6 µM.
With `Cc1ccc(Oc2ccc(C(=O)NCc3ccncc3)cc2)cc1` the Potency was inconclusive [cytotoxic, partial curve].
With `Cc1ccccc1NC(=O)c1ccc(NC(=O)C2CC(=O)OC23CCCCC3)cc1` (configuration not stated) the Potency was “inactive”.
For `CCOC(=O)C1=C(N)n2c(s/c(=C/c3ccco3)c2=O)=C(C(=O)OC)C1c1ccco1` (configuration not stated), the Potency was active: 13 µM.
With `CCOC(=O)c1cnc2ccc(C)cc2c1Nc1ccc(N2CCOCC2)cc1` the Potency was inconclusive [cytotoxic, single point].
In the case of `O=C(OCC(=O)N1CCOCC1)c1ccc2ccccc2c1O`, the Potency is reported as “inactive”.
In the case of `COc1cc(C#Cc2ccc3cc(C(C)(C)O)oc(=O)c3c2)cc(OC)c1`, the Potency is reported as inconclusive [cytotoxic, single point].
For `CCCCN1C(=O)C(=O)c2cc(Cl)ccc21`, the Potency was active: 25.9 µM.
In the case of `S=C(Nc1cc(Cl)cc(Cl)c1)NC1CCN(Cc2ccccc2)CC1`, the Potency is reported as active: 16.4 µM.
With `O=C(c1cccs1)N1C[C@H](n2cc(C3CC3)nn2)[C@@H](O)C[C@@H]1c1ccc(Cl)cc1` the Potency was “inactive”.
With `CCOc1ccccc1OCC(=O)Nc1cc(S(=O)(=O)N2CCCCC2)ccc1OC` the Potency was “inactive”.
In the case of `CCCCCn1ccc(=N)cc1`, the Potency is reported as “inactive”.
In the case of `CCOC(=O)N(C)c1c(CC)nc2c(OCCC3CCCCC3)cccn12`, the Potency is reported as inconclusive [cytotoxic, single point].
In the case of `COc1ccc([C@@H]2CC(=O)c3c(O)cc(O[C@@H]4O[C@H](CO[C@@H]5O[C@@H](C)[C@H](O)[C@@H](O)[C@H]5O)[C@@H](O)[C@H](O)[C@H]4O)cc3O2)cc1O`, the activity, negative = less viability is reported as inconclusive: 32.2%.
For `CC1CN(c2ccc([N+](=O)[O-])c(NCCOc3ccccc3)c2)CCN1` (configuration not stated), the Potency was active: 14.6 µM.
In the case of `NC(=O)c1ccc(NC(=O)COC(=O)c2ccc(Br)o2)cc1`, the activity, negative = less viability is reported as inactive: 5.3% [at 9.24 µM].
For `COc1cc(OC)nc(Oc2cc(/C=N/O)ccc2OC)n1`, the Potency was inconclusive [cytotoxic, single point].
With `CCOC(=O)[C@H]1[C@H]2COc3ccc(OC)cc3[C@@H]2N2C(=O)c3ccccc3NC(=O)[C@@]12C` the Potency was “inactive”.
In the case of `O=C(Nc1ccc(SC(F)F)cc1)c1ccc2nccnc2c1`, the Potency is reported as inconclusive [cytotoxic, full curve].
In the case of `C/C(=N\Nc1nc2ccccc2[nH]1)c1ccc2c(c1)OCO2`, the Potency is reported as inconclusive [cytotoxic, single point].
For `O=C(Nc1cccc2ncccc12)c1ccc([N+](=O)[O-])o1`, the Potency was active: 16.4 µM.
In the case of `O=C1Cc2ccccc2C(c2ccc(Cl)cc2)N1` (configuration not stated), the Potency is reported as “inactive”.
With `N#Cc1ccccc1OCCCN1CCC(C(O)(c2ccccc2)c2ccccc2)CC1` the Potency was inconclusive [cytotoxic, single point].
For `O=[N+]([O-])c1cccc(S(=O)(=O)N2CCCCC2c2cccnc2)c1` (configuration not stated), the Potency was “inactive”.
With `COc1ccc(N(CC(=O)Nc2nc3ccc(C)cc3s2)S(=O)(=O)c2c(C)nn(C)c2C)cc1` the Potency was inconclusive [cytotoxic, partial curve].
For `Cc1c(C(=O)C(=O)NCc2cccs2)c2ccccc2n1C`, the activity, negative = less viability was inconclusive: 32.3%.
For `O=S1(=O)N[C@@H](CC2CCCCC2)COc2cc(Br)ccc21`, the Potency was inconclusive [cytotoxic, single point].
In the case of `Brc1ccccc1C1=Nn2c(nnc2-c2ccccc2)SC1`, the Potency is reported as inconclusive [cytotoxic, partial curve].
With `Cc1ccc(Nc2nc3nonc3[nH]c2=O)cc1Cl` the Potency was inconclusive [cytotoxic, partial curve].
For `Cc1cc(N2CCN(S(=O)(=O)c3ccc(Cl)c(Cl)c3)CC2)c2ccccc2n1`, the Potency was inconclusive [cytotoxic, single point].
For `O=[N+]([O-])c1cc(CN2CCN(c3ccccc3)CC2)c(O)c2ncccc12`, the Potency was inconclusive [cytotoxic, full curve].
In the case of `CCOC(=O)N1CCN(C(=O)CSCc2nc(-c3ccccc3C)oc2C)CC1`, the Potency is reported as “inactive”.
In the case of `O=C(Nc1nc(-c2ccccc2)cs1)Nc1ccc(F)cc1F`, the Potency is reported as inconclusive [cytotoxic, single point].
In the case of `CNC(=O)c1c(NC(NC(=O)c2ccco2)C(=O)c2ccc(Cl)cc2)sc2c1CCCC2` (configuration not stated), the Potency is reported as inconclusive [cytotoxic, single point].
With `S=C(NC1CCCC1)N1CCOCC1` the Potency was “inactive”.
In the case of `COc1ccccc1NS(=O)(=O)c1ccc(C(=O)NCc2ccc(S(N)(=O)=O)cc2)cc1`, the Potency is reported as “inactive”.
For `Cc1ccc(C(=O)NCCc2nc3ccccc3[nH]2)cc1[N+](=O)[O-]`, the Potency was “inactive”.
With `Clc1cccc(OCCN2CCN(CCOc3cccc(Cl)c3)CC2)c1` the Potency was inconclusive [cytotoxic, single point].
For `CCCCNc1nc2c(-c3ccccc3)nnn2c2ccccc12`, the Potency was “inactive”.
In the case of `COc1cccc(C2=NOC(C(=O)NCc3cccs3)C2)c1` (configuration not stated), the Potency is reported as inconclusive [cytotoxic, single point].
With `Cc1ccc(S(=O)(=O)NCCN2CCOCC2)s1` the Potency was inconclusive [rising, single point].
With `C=CCOn1c(=O)c(-c2ccc(OCC)cc2)[n+]([O-])c2ccccc21` the Potency was inconclusive [rising, partial curve].
With `COCCCn1c(SCC(=O)Nc2ccc(NC(=O)c3ccco3)c(OC)c2)nc2ccccc2c1=O` the activity, negative = less viability was inconclusive: -8.66% [cytotoxic].
For `OCCCNc1ncnc2c1ncn2[C@H]1CN(Cc2ccc3c(c2)OCO3)C[C@@H](CO)O1`, the Potency was “inactive”.
For `C/C=C1\COC(C(=O)NCc2cccc(OC)c2OC)(C(F)(F)F)C=C1C=C1CCCCC1` (configuration not stated), the Potency was inconclusive [cytotoxic, single point].
With `CCOC(=O)c1cnc2ccc(OC)cc2c1Nc1ccc(N2CCN(C)CC2)cc1` the Potency was inconclusive [cytotoxic, single point].
